Assay results taken from publication PMC12136788.
Some of the results follow.

B1: chr15:63774837:63774950:-|CDS|ENSG00000103657|unk|FALSE|unique (ssRNA)
RNA: GGGAGUUCUACAGUCCGACGAUCGUAACAACAUUUCUUAAAGGAGUCACUAUUCCUAAUUCUGGGGCAGACACUUUAGGUCGUAGAUUAGCUUCUGAGUUGCUGCUUGGUUUGGCAGCUCAACGAGGCUCAUUGCGAUAUCUUCAACAGAGGAUUGAGCAUCA
B2: ENSG00000107863:be:win_5151|CDS|ENSG00000107863|bound_else_gene|NA|bound_elsewhere_windowed (ssRNA)
RNA: GGGAGUUCUACAGUCCGACGAUCUCUAGGAGAUGCCAAGAAUGAGAAAGAAGCACCUUCGUUAACUAAAGUGUUUGAUGUUAUGAAAAAAGGAAAGUCAACUGGGAGUUUACUGACACCCACCAGAGGCGAAUCCGAAAAACACAACAGAGGAUUGAGCAUCA
B3: chrX:11121696:11121802:+|CDS|ENSG00000004961|unk|FALSE|unique (ssRNA)
RNA: GGGAGUUCUACAGUCCGACGAUCUGAUGGUGGUGAAGUCAACAAGGACUACCAGUUCACCAUCCUGGACGUCCGUCCUGCCUUAGAUUCACUUUCGGCAGUAUGGGACAGAAUGAAAGUCGCUUGGUGGCGUUGGACCUCGUACAACAGAGGAUUGAGCAUCA
B4: chr2:152649661:152649762:+|3pUTR|ENSG00000157827|msi1|FALSE|unique (ssRNA)
RNA: GGGAGUUCUACAGUCCGACGAUCCUACAAAUAGACAACGUUGGCAUGUUCUUUUCUGUUUGUCUAUUAAUGGGCCUGCUUCUUAGCAAUAUUAGAAUGUUUUAUAAAAGCAAUUCAUGUUACUUUUCUGGUCUUUUCAUGGCACAACAGAGGAUUGAGCAUCA
B5: chr2:210612109:210612263:+|CDS|ENSG00000021826|unk|FALSE|unique (ssRNA)
RNA: GGGAGUUCUACAGUCCGACGAUCUAUUGGUCGUACCUUUGAGGAGAGUUUCCAGAAAGCUUUACGGAUGUGCCACCCAUCUAUAGAAGGUUUCACUCCCCGUCUCCCAAUGAACAAAGAAUGGCCAUCUAAUUUAGAUCUUAGCAACAGAGGAUUGAGCAUCA
B6: chr11:63758435:63758536:+|3pUTR|ENSG00000133318|msi1|total|mutant (ssRNA)
RNA: GGGAGUUCUACAGUCCGACGAUCAGAAAGAAUCAAAUUCACCGGAUAAGUCAAUACCUUAAUGGUGGCCGAGCCUUUACCUGCCGCUUGAAAGGGGAAAGAUUGGAGGUAAGAGAGAAAAUGAAAGAACACCUCUGGGUCCUUCAACAGAGGAUUGAGCAUCA
B7: chr11:74333230:74333331:-|3pUTR|ENSG00000165434|msi1|FALSE|unique (ssRNA)
RNA: GGGAGUUCUACAGUCCGACGAUCUGAGUCUUUUAUUGAAGGGUUCAAAGUAAGAAAUACUAUGCCAUAGUGUUCUCCAUCUCUAGUGAAGACAGAACCAGAGGGAAUAAGGAUCUUUUUUUUAAAGACAGCAUGGAAAGUUUACAACAGAGGAUUGAGCAUCA
B8: chr18:54155150:54155251:-|3pUTR|ENSG00000134046|unk|total|mutant (ssRNA)
RNA: GGGAGUUCUACAGUCCGACGAUCUUUCCACUGGCUUUUGCCUGUAAGAAAAAAAAUGUACCCGAGCACACCGAGCUUUUUAACCGCACUAACCAAUGCCUUUUCCGAUGUAUUUUUGAUGUAUAUAUCUAUUAUUCAAAAAAUCAACAGAGGAUUGAGCAUCA
B9: chr20:25296659:25296760:+|3pUTR|ENSG00000100994|msi1|FALSE|unique (ssRNA)
RNA: GGGAGUUCUACAGUCCGACGAUCUGGGGGUCAGGGUGGUUUUGAGAGAGCAGGGUAAGGAAGGAAUGUGCUAGAAGUGCUCCUAGUUUCUUGUAAAGGAAGCCAGAGUUGACAGUACAAAGGGUCGUGGCCAGCCCUGCAGCUCAACAGAGGAUUGAGCAUCA
B10: chr1:162523450:162523604:+|3pUTR|ENSG00000152332|msi1|total|mutant (ssRNA)
RNA: GGGAGUUCUACAGUCCGACGAUCAGACUAAGUUGUGCCAGAUGUAAAUCAACCCCUCUUUCCGUUUACUUCCGACUUUGUAUCCGCUCAUCUUUUUUGCCGUAAAUCUACCGUUUUAAGGUUUCUCAAGAUGUGGCUCUACCUCAACAGAGGAUUGAGCAUCA
B11: chr9:128390415:128390516:+|3pUTR|ENSG00000167118|msi1|FALSE|unique (ssRNA)
RNA: GGGAGUUCUACAGUCCGACGAUCCUUACAGCUCAUUCUGCUGGGGGUAGAGAUGAGGGGAGGGAGUAAGUUAAACCUUGGACUAGCAAGUAGAAGCCUGGGGGGAUGCGUGUGCCUCAGUUUCCUCCUCCACAACUGAAUAUACAACAGAGGAUUGAGCAUCA
B12: chr21:36753219:36753320:-|3pUTR|ENSG00000159267|msi1|total|mutant (ssRNA)
RNA: GGGAGUUCUACAGUCCGACGAUCGUUUCAGAUUUACUCUGAAAUGUGGAGCAUUCCUGCAAGACUGUGCAGCUCACGGAAUACCGAAGACAUGGCAUUUUACUCAGAAGUCAUAAGUUUUUGCCCCCCUCAUUUACCUCGUAUCAACAGAGGAUUGAGCAUCA
B13: chr6:38153770:38153871:+|3pUTR|ENSG00000156639|msi1|FALSE|unique (ssRNA)
RNA: GGGAGUUCUACAGUCCGACGAUCGGUGGACAGGAUCAGGAUUCCCUUGAAAGCCCAGGCAGGGUGAGCAGUCCCAGUGGUCCUAGUGCCGCAUCAGAUCCAGGUGGGUGAGGGCAGGAGGCCCCUGCGGAGGCAGCGUGGAUCCAACAGAGGAUUGAGCAUCA
B14: chr1:46929176:46930310:-|three_prime_utr|ENSG00000187048|control|control|control (ssRNA)
RNA: GGGAGUUCUACAGUCCGACGAUCAAGGCUACCCUGACGCACCAUAAUCUAAGCCCGGGGCAUAAAACCCCUCGUGGCUUGGAUAGAAUCCAGGGCUCGUGGCUCUGGAAUGUGUCUGAACUUGCUGCCUCCUCGCUCCUUGCUCAACAGAGGAUUGAGCAUCA
B15: chr1:53088011:53088246:-|CDS|ENSG00000162383|control|control|control (ssRNA)
RNA: GGGAGUUCUACAGUCCGACGAUCCAAGCCAGUGAGCCUCCAGGAGAUCGUGGCAGCCCAGCAGAAUGGCUGUGUGAAGAGUGUAGCCGAGGCCUCCGAGCUCACCCUGGGCCCCACCUGCCCCCACCACGUCCCCGUUCAAGUCAACAGAGGAUUGAGCAUCA
B16: chr19:45890022:45890622:-|three_prime_utr|ENSG00000176182|control|control|control (ssRNA)
RNA: GGGAGUUCUACAGUCCGACGAUCUCUCCCCAGCUUGGCGCAGUCGAGGGGGGCGAUGCUCUCUGCCCAUCCCAGCUGCACCCUAGCUCCCUGCUCCAGGGAUGUGAGCACCCACUCCCUGUGCUAGUUAGUGCCUGAUUCUCUCAACAGAGGAUUGAGCAUCA
B17: chr5:140245379:140245480:-|3pUTR|ENSG00000113068|msi1|FALSE|unique (ssRNA)
RNA: GGGAGUUCUACAGUCCGACGAUCUCUUCUCUUUUCCCUUCCUGUACCUUUGACUAACGCUCAGCUUCCGGGCCUGCAUGCAGUAGACAGAAGAGGAAGAAAGAACAGAUGUUCACAGCUGAAUCUCAGUGAACAGAAUAGCAGCAACAGAGGAUUGAGCAUCA
B18: chr11:61865769:61866452:+|3pUTR|ENSG00000134824|msi1|FALSE|unique (ssRNA)
RNA: GGGAGUUCUACAGUCCGACGAUCUGCAGCCUGGUCACUAGGCAUCACCCCCGCUUUGGUUCUUCAGAUGCUCUUGGGGUUCAUAGGGGCAGGUCCUAGUCGGGCAGGGCCCCUGACCCUCCCGGCCUGGCUUCACUCUCCCUGCAACAGAGGAUUGAGCAUCA
B19: chr3:15690066:15690176:-|CDS|ENSG00000206560|unk|total|mutant (ssRNA)
RNA: GGGAGUUCUACAGUCCGACGAUCAGUGUUGGUACAGUCUUUGUCCGAUCUUGAUGUCAGAAACCGCCGUGGAAGAACACCCCCCGAUCUUGCAGCUUUUAAGGGCCAUGUUGAAUGUGUGGAUGUACUCAUUAAUCAGGGAGCCAACAGAGGAUUGAGCAUCA
B20: ENSG00000070961:be:win_5101|3pUTR|ENSG00000070961|bound_else_gene|NA|bound_elsewhere_windowed (ssRNA)
RNA: GGGAGUUCUACAGUCCGACGAUCAUGACCACCAUUGUCUUUGAUACAUUUAUUUUAAUUCUUAAGUGGCCAAAUAACAGAUUAGGUAAAAUGAGAUUACAUGAAAAGGUUCUAAAAUGAUAUAUUUAGAUGCAAUAAUUAACCCAACAGAGGAUUGAGCAUCA
B21: chr3:36528868:36528981:+|CDS|ENSG00000144681|unk|FALSE|unique (ssRNA)
RNA: GGGAGUUCUACAGUCCGACGAUCAGAAUUGGCUUCUUUCCAGCCAACUUUGUUCAGAGACUACAACAAAAUGAGAAGAUUUUUAGAUGUGUUAGAACCUUCAUUGGGUGUAAGGAACAGGGGCAGAUAACACUGAAAGAGAAUCAACAGAGGAUUGAGCAUCA
B22: chr1:56708525:56708626:+|3pUTR|ENSG00000162409|unk|total|mutant (ssRNA)
RNA: GGGAGUUCUACAGUCCGACGAUCACCUUUCUCAAAUUCUUUUUGCCUCUAUUUAUUUUUGCAUUUCACCAACAGUGAUAAAACCGUUAAAUGAAACAAAGCAAAGUAUCAACAGUCCCUUAAAUGAGAAUCCUUAUCUUUGAUCAACAGAGGAUUGAGCAUCA

The binders below were run against MSI1 full-length (mouse, UniProt Q61474 1-362) (assay: nsRBNS (natural sequence RNA bind-n-seq); RBNS binding buffer (assumed for nsRBNS): 25 mM Tris pH 7.5, 150 mM KCl, 3 mM MgCl2, 0.01% Triton X-100, 500 ug/ml BSA, 20 U/ml SUPERase-In, 4 C; UNK is unkempt and MSI1 is Musashi-1; names of the RNAs are library labels; protein concentration not given here; high values mean tight binding).
Chain of UniProt Q61474 (Q61474 whole entry): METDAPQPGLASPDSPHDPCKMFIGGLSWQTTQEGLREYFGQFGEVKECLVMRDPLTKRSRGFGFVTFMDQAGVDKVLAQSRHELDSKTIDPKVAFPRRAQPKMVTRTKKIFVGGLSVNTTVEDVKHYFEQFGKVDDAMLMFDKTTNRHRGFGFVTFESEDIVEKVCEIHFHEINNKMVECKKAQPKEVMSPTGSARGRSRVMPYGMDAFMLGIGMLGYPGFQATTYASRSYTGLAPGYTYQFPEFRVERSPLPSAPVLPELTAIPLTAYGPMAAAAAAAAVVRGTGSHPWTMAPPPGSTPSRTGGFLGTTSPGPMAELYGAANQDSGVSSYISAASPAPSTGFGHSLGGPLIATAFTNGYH

Row | Binder | binding signal [enrichment R]
1 | B1 | 0.415
2 | B2 | 0.372
3 | B3 | 0.379
4 | B4 | 1.08
5 | B5 | 1.27
6 | B6 | 0.419
7 | B7 | 0.487
8 | B8 | 0.518
9 | B9 | 0.706
10 | B10 | 0.276
11 | B11 | 1.01
12 | B12 | 0.414
13 | B13 | 0.41
14 | B14 | 0.304
15 | B15 | 0.677
16 | B16 | 0.626
17 | B17 | 0.346
18 | B18 | 0.473
19 | B19 | 0.359
20 | B20 | 9.91
21 | B21 | 0.844
22 | B22 | 0.454
